In all, about 150,000 compounds went through this assay and about 6,500 (4.3%) were called active. The shares of active, inactive and inconclusive entries below differ from those in the screen. The call rests on the fitted dose curve; in most records, active means well fitted inhibition curve with a large enough effect (not every such curve was filed as active); inconclusive means small, poorly fitted or top-dose-only effect, or another doubt; inactive means no such curve, though single readings can be large or run the other way. A potency beside an inconclusive call is a rough fit, not a confirmed value.
The compounds below were run against 15-hydroxyprostaglandin dehydrogenase [NAD(+)] (Homo sapiens) (UniProt P15428) (assay: qHTS Assay for Inhibitors of HPGD (15-Hydroxyprostaglandin Dehydrogenase)). Conditions: purified HPGD, NADH fluorescence kinetic, PGE2 substrate; activity change, negative = inhibition: stronger effect = lower value.
UniProt P15428, sequence (P15428 whole entry, looked up): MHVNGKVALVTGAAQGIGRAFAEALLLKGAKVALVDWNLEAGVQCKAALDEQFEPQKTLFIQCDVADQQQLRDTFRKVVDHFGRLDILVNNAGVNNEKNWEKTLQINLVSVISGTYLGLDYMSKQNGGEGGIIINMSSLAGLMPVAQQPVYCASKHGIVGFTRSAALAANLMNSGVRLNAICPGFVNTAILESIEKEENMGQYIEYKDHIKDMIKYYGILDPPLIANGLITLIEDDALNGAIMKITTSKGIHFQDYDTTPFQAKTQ
How it was run: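 20 nM HPGD preincubated 15 min at room temperature with compound in 50 mM Tris-HCl pH 8, 0.01% Tween 20. Started with 1 mM NAD+ and 30 uM prostaglandin E2; NADH fluorescence (360/450 nm) read 5 times over 30-s intervals, last minus first.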
On the % scale 0 is the no-effect control and ±100 the full control effect; potency means the concentration at half of the fitted maximal effect; tags describe the fitted curve by direction and shape.

Potency, active:
O=C(CSc1ccc(Cl)cc1)c1ccco1 25.1 µM
CN(Cc1ccco1)C(=O)c1c[nH]c2ccc(S(=O)(=O)Nc3ccc4c(c3)OCCO4)cc2c1=O 17.8 µM
O=C(NC1CC1)c1cc(F)c(F)cc1Cl 22.4 µM
O=C(/C=C/c1ccccc1)NCCSCc1ccccc1Cl 10 µM
O=C(O)CCN1C(=O)c2ccc(NC(=O)CSc3ccccc3)cc2C1=O 20 µM
Cc1[nH]n(C(N)=S)c(=O)c1N=Nc1ccc(S(=O)(=O)N2CCCCCC2)cc1 15.8 µM
O=C(/C=C/c1c(F)cccc1Cl)NCc1ccco1 10 µM
COCCOC(=O)c1sc(=S)n(CCOC)c1N 28.2 µM
COc1ccc(NC(=S)Nc2ccc(OC)cc2OC)c(OC)c1 25.1 µM
CC1NC(=O)NC1CCCCCC(=O)NCCc1ccccc1 (stereo unspecified) 25.1 µM

Potency, inconclusive:
CCc1cc2c(=O)[nH]c(-c3ccncc3)nc2s1 25.1 µM [inhibitor, partial curve]
O=C1c2ccccc2NC2(CCCCC2)N1N=C1CCCCC1 31.6 µM [inhibitor, partial curve]
O=C(CSc1ncnc2c1oc1ccccc12)NC1CCCCC1 2.82 µM [inhibitor, full curve]
O=C(Nc1cc2c(cc1Br)OCCO2)c1ccco1 35.5 µM [inhibitor, single point]
Cc1cc(=O)oc2cc(OCC(=O)N3CCCc4ccccc43)ccc12 15.8 µM [inhibitor, partial curve]
c1ccc2nc(-c3nc4ccccc4o3)ccc2c1 31.6 µM [inhibitor, partial curve]
COC(=O)c1cc(Cl)c(NC(=O)/C=C/c2ccc(Cl)cc2Cl)cc1OC 28.2 µM [inhibitor, partial curve]
CCOC(=O)c1c(C)nc(C)c(C(=O)OCC)c1-c1ccccc1 31.6 µM [inhibitor, partial curve]
Cc1n[nH]c(C)c1N1C(=O)c2cccc3c(N4CCCCCC4)ccc(c23)C1=O 28.2 µM [inhibitor, partial curve]
Cc1ccc(C(=O)/C=C2/NC(=O)CS2)cc1 28.2 µM [inhibitor, single point]
CC(C)OC(=O)CC(=O)CSc1nc2c(cc1C#N)CCCC2 28.2 µM [inhibitor, partial curve]
Nc1nonc1-c1nc2ccccc2n1CC(=O)N/N=C\c1ccc(-c2ccc(Cl)cc2)o1 17.8 µM [inhibitor, partial curve]
CCc1ccc(OCC(=O)Nc2ccc(-c3cc4ccccc4oc3=O)c(OC)c2)cc1 35.5 µM [inhibitor, partial curve]
COc1ccc(/C=C(/CC(=O)NCc2ccc(Cl)cc2)c2nc3ccccc3s2)cc1 15.8 µM [inhibitor, partial curve]
CCOC(=O)c1c(-c2ccc(-c3ccccc3)cc2)csc1NC(=O)c1cccc(N2C(=O)CCC2=O)c1 31.6 µM [inhibitor, partial curve]
N=c1c(C(=O)NCc2ccc(F)cc2)cc2c(=O)n3ccccc3nc2n1Cc1ccco1 8.91 µM [inhibitor, partial curve]
COc1cccc(/C=N/NC(=O)CSc2ccccc2C)c1OC 10 µM [inhibitor, partial curve]
c1ccc2oc(C3=NNC(=NC4CC4)SC3)cc2c1 17.8 µM [inhibitor, partial curve]
Cc1ccc2[nH]c(=O)c(CN(CCCN3CCOCC3)C(=O)NC3CCCCC3)cc2c1 25.1 µM [inhibitor, partial curve]
O=C(CN1CCOCC1)Nc1c2c(nc3ccccc13)N(Cc1ccccc1)CC2 35.5 µM [inhibitor, single point]
C=CCn1c(C)cc(C(=O)CSc2nc3ccccc3[nH]2)c1C 25.1 µM [inhibitor, partial curve]
Cc1nnc2sc(-c3csc4c3CCCC4)nn12 31.6 µM [inhibitor, single point]
Cc1ccc2[nH]c3c(NCCCN4CCCC4=O)ncnc3c2c1 31.6 µM [inhibitor, partial curve]
COC(=O)c1[nH]c2ccc(C)cc2c1NC(=O)CN1CCC(C)CC1 22.4 µM [inhibitor, partial curve]
Cc1nc2cc(-c3ccc(Cl)cc3)nn2c(C)c1CCC(=O)NCc1ccco1 25.1 µM [inhibitor, partial curve]
COc1ccccc1-c1nn2c(=O)cc(C)nc2s1 17.8 µM [inhibitor, partial curve]

Activity change, negative = inhibition, inactive:
COc1cc(C(=S)N2CCOCC2)ccc1OC(=O)c1cc([N+](=O)[O-])c(C)c([N+](=O)[O-])c1 -18.2%
O=S(=O)(c1cccc2c(S(=O)(=O)N3CCCC3)cccc12)N1CCCC1 0.436%
CN1OC(COC(=O)c2ccc(Cl)cc2Cl)CC1c1ccccc1 (stereo unspecified) -10.3%
COc1ccccc1C(=O)NCCc1nc2ccccc2[nH]1 -11.3%
CC(C)NC(=O)N1CCC2(CC1)CCN(C(=O)c1csnn1)CC2 -0.838%
C=CCn1c(Cc2c(C)[nH]c3ccccc23)nnc1SCC(=O)NCc1ccc(F)cc1 -13.7%
COCC(=O)N1CCC2(CCCN(Cc3ccccc3OC)C2)CC1 -6.17%
COc1ccc(NS(=O)(=O)c2ccc(N3CCOCC3)c(NC(=O)c3ccccc3Cl)c2)cc1 -10.6%
CCNc1nc(Oc2ccc(=O)n(-c3ccccc3)n2)nc(N(C)C)n1 -6.21%
CC1CCCN(C(=O)COC(=O)c2ccc[nH]c2=O)C1 (stereo unspecified) -7.7%
